# Assay results taken from PMC12069340 (Frontiers in Cellular and Infection Microbiology, 2025).
# Where a name gives a salt, the structure may show the parent alone.
# Tested on: influenza virus PR8
row,SMILES,stage of viral replication inhibited
1,"CC(COc1ccccc1)NC(C)C(O)c1ccc(O)cc1 (centres unmarked) [Isoxsuprine, Isoxsuprine hydrochloride]",exhibited inhibition when administered during the initial stages of viral replication
2,CC(=O)OCOC(=O)CN(CC(=O)OCOC(C)=O)c1ccccc1OCCOc1ccccc1N(CC(=O)OCOC(C)=O)CC(=O)OCOC(C)=O [BAPTA-AM],early
3,O=C(c1ccc(OCCCc2cnc[nH]2)cc1)C1CC1 [Ciproxifan],exhibited inhibition when administered during the initial stages of viral replication
4,CCCN(CCc1cccs1)[C@H]1CCc2c(O)cccc2C1 [Rotigotine],exhibited inhibition when administered during the initial stages of viral replication
5,"CCOC(=O)C1=C[C@@H](OC(CC)CC)[C@H](NC(C)=O)[C@@H](N)C1 [oseltamivir, Oseltamivir]",late
